According to PubChem BioAssay AID485367 (National Center for Advancing Translational Sciences (NCATS), 2010):
Hit rate of the full screen: of about 330,000 compounds, about 560 (0.17%) were called active. Inconclusive results, whose numbers are uncertain, are shown with a selection of clear calls. The call rests on the fitted dose curve; in most records, active means well fitted inhibition curve with a large enough effect; inconclusive means small, poorly fitted or top-dose-only effect, or effect the other way; inactive means flat fitted curve, though single readings scatter. Potencies of inconclusive entries are left out as doubtful fits.

target: ATP-dependent 6-phosphofructokinase (Trypanosoma brucei brucei) (UniProt O15648); experiment: qHTS Assay to Find Inhibitors of T. brucei phosphofructokinase; further: nearly all actives have a fitted effect of over 60% in size;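 on activity, negative = inhibition: 0% = uninhibited 1x PFK enzyme wells and -100% = no-enzyme wells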; conditions: T. brucei PFK, ADP-Glo luminescence; activity, negative = inhibition: at 57.5 µM (top of the series)
Chain of UniProt O15648 (O15648 whole entry, looked up): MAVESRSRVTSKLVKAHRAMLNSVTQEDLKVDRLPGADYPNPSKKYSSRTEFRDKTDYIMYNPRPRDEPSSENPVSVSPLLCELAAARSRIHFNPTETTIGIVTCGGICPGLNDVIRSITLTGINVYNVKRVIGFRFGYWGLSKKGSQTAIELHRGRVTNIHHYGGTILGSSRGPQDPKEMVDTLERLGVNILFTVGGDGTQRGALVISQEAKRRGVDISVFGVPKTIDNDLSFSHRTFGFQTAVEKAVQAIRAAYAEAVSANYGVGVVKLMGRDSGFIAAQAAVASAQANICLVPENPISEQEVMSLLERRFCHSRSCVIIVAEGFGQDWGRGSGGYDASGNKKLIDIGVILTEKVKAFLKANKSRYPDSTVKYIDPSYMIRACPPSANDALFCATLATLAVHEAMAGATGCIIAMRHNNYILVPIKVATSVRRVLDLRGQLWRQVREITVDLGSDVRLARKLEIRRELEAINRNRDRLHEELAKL
Outline: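 Compounds were pin-transferred as a titration series up to 57 uM into substrate buffer (0.5 mM F6P, 0.1 mM ATP, pH 8.0), then 1.25 nM PFK was added and reactions ran 45 min before ADP-Glo detection.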
Potency means the concentration at half of the fitted maximal effect; tags describe the fitted curve by direction and shape.

Row | Structure (SMILES) | Potency | activity, negative = inhibition
1 | O=S1(=O)C=C(Sc2nnc(-c3ccccc3)o2)c2ccccc21 | inconclusive [falling, partial curve] | 
2 | O=C(c1cc2cc([N+](=O)[O-])ccc2oc1=O)n1cccn1 | inconclusive [activator, partial curve] | 
3 | COc1ccc(C(=O)O/N=C(\N)Cc2ccc(Cl)c(Cl)c2)cc1OC | inconclusive [falling, single point] | 
4 | Cc1cccnc1NC(=S)Nc1ccc(F)cc1F |  | inactive: -1.63%
5 | COc1c(-c2ccc(O)c(O)c2)oc2cc(O)cc(O)c2c1=O | inconclusive [activator, partial curve] | 
6 | O=C(Nc1ccc(Cl)c([N+](=O)[O-])c1)ONC1=NCCCCC1 | inconclusive [falling, partial curve] | 
7 | O=C1C(Cc2c[nH]c3ccccc23)NC(=S)N1Cc1ccccc1 (stereo not drawn) | inconclusive [falling, single point] | 
8 | O=c1cc(-c2ccc(O)c(O)c2)oc2cc(O[C@@H]3O[C@H](CO)[C@@H](O)[C@H](O)[C@H]3O)cc(O)c12 | inconclusive [falling, partial curve] | 
9 | COc1cccc(C2=NNC(=NCc3ccccc3)SC2)c1 |  | inactive: 1.14%
10 | O=C(CSc1ccc2nnc(-c3ccccn3)n2n1)Nc1ccccc1C(F)(F)F | inconclusive [falling, single point] | 
11 | CCOc1ccc(NC(=O)CCS(=O)(=O)c2ccc(Br)cc2)cc1 | active: 15.1 µM | 
12 | Cc1cc(NS(=O)(=O)c2ccc(NC(=O)Nc3ccccc3)cc2)no1 |  | inactive: -4.09%
13 | O=[N+]([O-])c1ccc(N2CCN(c3cccc(Cl)c3)CC2)cn1 | active: 12 µM | 
14 | CN1CCN(C(=O)CSc2nnc(COc3ccc(Cl)cc3)o2)CC1 | inconclusive [falling, full curve, poor fit] | 
15 | CCN(CC(=O)NCc1ccc(F)cc1)C(=O)/C=C/c1ccco1 | inconclusive [falling, single point] | 
16 | CC(CCO)Nc1nc2c([nH]1)c(=O)n(C)c(=O)n2C (stereo not drawn) | inconclusive [falling, single point] | 
17 | CCOC(=O)CCCc1sc(N)nc1-c1[nH]c(=O)[nH]c1C | inconclusive [falling, single point] | 
18 | Cc1ccc(NC(=O)CN(C)C(=O)c2cccc(-n3cccc3)c2)cc1 | inconclusive [falling, partial curve] | 
19 | O=C(NC1CC1)C1CCN(S(=O)(=O)c2cc([N+](=O)[O-])ccc2Cl)CC1 |  | inactive: -28.4%
20 | CCOC(=O)C1=C(COC(=O)CCS(=O)(=O)c2ccc(C)cc2)NC(=O)NC1C (stereo not drawn) | inconclusive [activator, single point] | 
21 | CC(=O)NC1C(=O)N(CCN2CCOCC2)c2ccc(Cl)cc21 (stereo not drawn) | inconclusive [falling, full curve] | 
22 | O=C(O)c1ccc2ncsc2c1 | inconclusive [falling, partial curve] | 

Row | Structure (SMILES) | Potency | activity, negative = inhibition
23 | NC(=O)C1CCN(c2nc(-c3cc4ccccc4o3)cs2)CC1 | inconclusive [falling, single point] | 
24 | O=C(CSc1nc(-c2ccc(F)cc2)nc2c1Cc1ccccc1O2)Nc1ccc(C(=O)O)cc1 | inconclusive [falling, full curve, poor fit] | 
25 | C=CCn1c(-c2ccccc2)c[nH]c1=S | inconclusive [falling, single point] | 
26 | Nc1nc2ccccc2n1Cc1ccc(Cl)c(Cl)c1 | inconclusive [falling, partial curve] | 
27 | c1ccc(-c2nnc(-c3ccccn3)s2)nc1 | inconclusive [falling, partial curve, poor fit] | 
28 | CC(NC(=O)CN1CCN(c2ccccc2F)CC1)c1ccccc1 (stereo not drawn) |  | inactive: 1.92%
29 | CC(C)NCC#CCOc1ccc(Cl)cc1 | inconclusive [falling, single point] | 
30 | N#CC1=C(N)Oc2cc(O)c(Cl)cc2C1c1cccnc1 (stereo not drawn) |  | inactive: -7.32%
31 | CCOc1cccc(C(=O)Nc2ccc3oc(Cc4ccc(Cl)cc4)nc3c2)c1 |  | inactive: 1.38%
32 | Cc1cc(N2CCOCC2)nc2ccc(NC(=O)CCC(=O)N3CCN(c4cccc(C(F)(F)F)c4)CC3)cc12 | inconclusive [falling, partial curve] | 
33 | COC(=O)c1[nH]c2ccccc2c1NC(=O)CN1CCCc2ccccc21 | inconclusive [activator, partial curve] | 
34 | CC(Cc1c[nH]c2ccccc12)C(=O)NCc1ccco1 (stereo not drawn) | inconclusive [falling, single point] | 
35 | Fc1ccc(C2CC(c3ccco3)=Nc3ccccc3S2)cc1 (stereo not drawn) | inconclusive [falling, partial curve] | 
36 | CCCCOC(=O)c1ccc(N/C(=N\S(=O)(=O)c2ccccc2)c2ccccc2)cc1 | inconclusive [falling, single point] | 
37 | Cc1cc(CNC(=O)c2cccc([N+](=O)[O-])c2C)c2ccccc2n1 | inconclusive [falling, partial curve] | 
38 | Cc1cc(NC(=O)CN2CCOCC2)n(-c2ccccc2)n1 | inconclusive [falling, single point] | 
39 | CC(C)(NC(=O)c1ccccc1)c1nc2ccccc2s1 | inconclusive [falling, partial curve] | 
40 | Cc1cc([N+](=O)[O-])nn1CCCC(=O)Nc1sc2c(c1C(N)=O)CCCC2 | inconclusive [falling, partial curve] | 
41 | CC(=O)Nc1ccc(N2C(=O)c3cccc4c(O)ccc(c34)C2=O)cc1 | inconclusive [falling, partial curve] | 
42 | COc1ccc2nc(-c3ccccc3)cc(C(=O)OCC(=O)N3CCCCC3)c2c1 | inconclusive [falling, partial curve] | 
43 | C=CCn1c(SCC(=O)NC2CCCC2)nc2sc(C)cc2c1=O | inconclusive [activator, single point] | 
